Data: PubChem BioAssay (NCATS)
Values joined by “and” are separate entries in the source; they are usually repeats but may differ in a detail not shown here. Equal entries are not always repeated. The inconclusive results got no clear call from the source; some entries with a clear call stand among them for comparison. For part of these data: Potencies of inconclusive entries are doubtful fits and often do not repeat. Active and inactive are the calls of the source. Calls follow the shape of the dose curve; as a rule, active = well fitted curve in the direction sought with a large enough effect; inconclusive = small, poorly fitted or top-dose-only effect, or another doubt; inactive = no such curve, though single readings can be large; an effect the other way counts as inactive or inconclusive.

Assays:
[1] = Viability qHTS for spleen associated tyrosine kinase inhibitor (SYKi) drug resistant MV4-11 cells (AID 1963824); also: nearly all actives have a fitted effect of over 35% in size
Procedure, shortened: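 SYK inhibitor-resistant MV4-11 AML cells, 500 per well, added to predispensed compounds and incubated 72 hr at 37 C, 5% CO2. Viability measured by CellTiter-Glo luminescence after 10 min at room temperature.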

[2] = Quantitative highthroughput screen to assess conditional lethalithy of NOMO1 cells grown in RPMI1640 with untreated serum (RPMI+s) (AID 1963876); conditions: NOMO1 AML cells in RPMI+serum, CellTiter-Glo viability, 48 h; viability: at 45.8 µM (top of the series); also: nearly all actives have a fitted effect of over 35% in size
Procedure, shortened: (§1)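 Each medium arm—HPLM with 10% dialyzed FBS, or RPMI1640 with 5 mM glucose and 10% untreated or dialyzed FBS—was screened against an 11-point, 3-fold compound titration for 48 h at 37 °C, with CellTiter-Glo luminescence as endpoint.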

[3] = Quantitative highthroughput screen to assess conditional lethalithy of NOMO1 cells grown in RPMI1640 with dialyzed fetal bovine serum (RPMI+ds) (AID 1963877); also: nearly all actives have a fitted effect of over 30% in size
Procedure, shortened: as §1

[4] = Quantitative highthroughput screen to assess conditional lethalithy of NOMO1 cells grown in Human Plasma-Like Medium with dialyzed fetal bovine serum (HPLM+ds) (AID 1963878); conditions: NOMO1 AML cells in HPLM+ds, CellTiter-Glo viability, 48 h; viability: at 45.8 µM (top of the series); also: nearly all actives have a fitted effect of over 35% in size
Procedure, shortened: as §1

[5] = Quantitative highthroughput screen to assess conditional lethalithy of P12 Ichikawa cells grown in Human Plasma-Like Medium with dialyzed fetal bovine serum (HPLM+ds) (AID 1963879); conditions: Potency: viability; also: nearly all actives have a fitted effect of over 35% in size
Procedure, shortened: as §1

[6] = Quantitative highthroughput screen to assess conditional lethalithy of P12 Ichikawa cells grown in RPMI1640 with dialyzed fetal bovine serum (RPMI+ds) (AID 1963880); conditions: Potency: P12-Ichikawa viability; also: nearly all actives have a fitted effect of over 35% in size
Procedure, shortened: as §1

[7] = Quantitative highthroughput screen to assess conditional lethalithy of SEM cells grown in Human Plasma-Like Medium with dialyzed fetal bovine serum (HPLM+ds) (AID 1963882); also: nearly all actives have a fitted effect of over 35% in size
Procedure, shortened: as §1

[8] = Quantitative highthroughput screen to assess conditional lethalithy of SEM cells grown in RPMI1640 with unreated serum (RPMI+s) (AID 1963883); conditions: SEM B-ALL cells, CellTiter-Glo viability, 48 h; viability: at 45.8 µM (top of the series); also: nearly all actives have a fitted effect of over 35% in size
Procedure, shortened: as §1

[9] = Quantitative highthroughput screen to assess conditional lethalithy of SEM cells grown in RPMI1640 with dialyzed fetal bovine serum (RPMI+ds) (AID 1963884); conditions: SEM B-ALL cells, RPMI+dialyzed FBS, CellTiter-Glo viability, 48 h; viability: at 45.8 µM (top of the series); also: nearly all actives have a fitted effect of over 35% in size
Procedure, shortened: as §1

[10] = Cellular viability qHTS for adrenocortical cancer (ACC) cell line NCI-H295R (AID 1963990); conditions: CellTiter-Glo ATP luminescence, 48 h; series mostly up to 46.1 µM; also: nearly all actives have a fitted effect of over 60% in size
Procedure, shortened: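 Viability of NCI-H295R after 48 h of treatment (final up to 46 uM) measured through cellular ATP luminescence.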

[11] = Quantitative highthroughput screen to assess conditional lethalithy of P12 Ichikawa cells grown in RPMI1640 with untreated serum (RPMI+s) (AID 1963881); conditions: Potency: viability; also: nearly all actives have a fitted effect of over 35% in size
Procedure, shortened: as §1

[12] = Cellular viability qHTS for adrenocortical cancer (ACC) cell line SW-13 (AID 1963989); conditions: SW-13 ACC cells viability, CellTiter-Glo, 48 h; activity (max response): stronger effect = lower value; also: nearly all actives have a fitted effect of over 65% in size
Procedure, shortened: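 Here, serum-free SW-13 cultures were dosed up to 46 uM. Following 48 h, ATP-dependent luminescence (CellTiter-Glo) reported viable cells, and logistic modeling produced IC50 values.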
Potency is read from the fitted curve at half-maximal effect; tags tell the direction and shape of the fitted curve.

C=C1C(=O)OC2/C=C(/C)C3=CC(=O)C(C)(CC(OC(=O)/C(C)=C/COC(C)=O)C12)O3 (stereo not given)
Potency [1]: active: 0.796 µM

CC(O)/C=C/C1(O)C(C)C(O)C(O[C@@H]2O[C@H](CO)[C@@H](O)[C@H](O)[C@H]2O)CC1(C)C (stereo not given in full)
Potency [1]: inactive

CC(=O)N[C@@H](Cc1ccc(O)cc1)C(=O)O
Potency [1]: inactive

COc1ccc(CCC(=O)c2c(O)cc(O)cc2O[C@@H]2O[C@H](CO)[C@@H](O)[C@H](O)[C@H]2O)cc1
Potency [1]: inconclusive: 15.9 µM [cytotoxic, single point]

O=S(=O)(O)c1ccc2cc(N=Nc3cc(S(=O)(=O)O)c4cccnc4c3O)ccc2c1
Potency [1]: inconclusive: 13 µM [cytotoxic, partial curve, poor fit]
Potency [2]: inconclusive: 37.2 µM [cytotoxic, single point]
Potency [3]: inconclusive: 29.6 µM [cytotoxic, single point]
Potency [4]: inconclusive: 29.6 µM [cytotoxic, single point]
Potency [5]: inconclusive: 37.2 µM [cytotoxic, single point]
Potency [6]: inconclusive: 26.4 µM [cytotoxic, single point]
Potency [7]: inconclusive: 33.2 µM [cytotoxic, single point]
Potency [8]: inconclusive: 33.2 µM [cytotoxic, single point]
Potency [9]: inconclusive: 33.2 µM [cytotoxic, single point]
Potency [10]: inconclusive: 28.2 µM [cytotoxic, single point]

CCC[C@H](N[C@@H](C)C(=O)N1[C@@H]2CCCC[C@H]2C[C@H]1C(=O)O)C(=O)OCC
Potency [1]: inactive
Potency [2]: active: 13.2 µM
Potency [3]: inconclusive: 5.26 µM [cytotoxic, partial curve]
Potency [4]: inconclusive: 2.09 µM [cytotoxic, full curve]
Potency [5]: inactive
Potency [6]: inconclusive: 9.35 µM [cytotoxic, partial curve, poor fit]
Potency [11]: inconclusive: 2.09 µM [cytotoxic, full curve, poor fit]
Potency [7]: inactive
Potency [9]: inactive

CN1Cc2cc(C(=O)N3CCC(C4CCNCC4)CC3)ccc2N[C@@H](CC(=O)O)C1=O
Potency [1]: inactive

CC(=O)O[C@H]1C[C@@]2(C)[C@@H](CC[C@H]3[C@@]4(C)C=CC(=O)[C@@H](C)[C@@H]4[C@H](O)C(=O)[C@@]32C)/C1=C(/CCC=C(C)C)C(=O)O
Potency [1]: inconclusive: 4.47 µM [cytotoxic, partial curve]

CC1(C)CCC2=C(O1)c1ccccc1C(=O)C2=O
Potency [1]: active: 7.42 µM
Potency [2]: inconclusive: 26.4 µM [cytotoxic, single point]
Potency [3]: inconclusive: 37.2 µM [cytotoxic, single point]
Potency [4]: inconclusive: 33.2 µM [cytotoxic, single point]
Potency [5]: inconclusive: 33.2 µM [cytotoxic, single point]
Potency [6]: inconclusive: 37.2 µM [cytotoxic, single point]
Potency [11]: inconclusive: 33.2 µM [cytotoxic, single point]
Potency [10]: active: 8.91 µM

CN(C)C(=O)C(CCN1CCC(O)(c2ccc(Cl)cc2)CC1)(c1ccccc1)c1ccccc1
Potency [1]: active: 15 µM and active: 10.5 µM
Potency [2]: inconclusive: 26.4 µM [cytotoxic, single point]
Potency [3]: active: 20.9 µM
Potency [4]: inconclusive: 29.6 µM [cytotoxic, single point]
Potency [5]: inconclusive: 20.9 µM [cytotoxic, single point]
Potency [6]: inconclusive: 18.7 µM [cytotoxic, partial curve]
Potency [7]: inconclusive: 18.7 µM [cytotoxic, partial curve, poor fit]
Potency [8]: inconclusive: 18.7 µM [cytotoxic, partial curve, poor fit]
Potency [9]: inconclusive: 20.9 µM [cytotoxic, partial curve, poor fit]
Potency [12]: active: 5.17 µM and inconclusive: 28.2 µM [cytotoxic, single point]

O=C(NCc1ccc(Oc2ccccc2)cc1)c1nc(-c2cc(Br)c(O)c(Br)c2)no1
Potency [1]: inconclusive: 20.6 µM [cytotoxic, partial curve]

CC(=O)OCC1=C[C@H](O)[C@@H]2C(C(=O)O)=CO[C@@H](O[C@@H]3O[C@H](CO)[C@@H](O)[C@H](O)[C@H]3O)[C@H]12
Potency [1]: inactive
